The supplement of paper PMC8728848
Some of the results follow.

Columns and labels:
Assay in all cases: glycan array binding signal (z-score within array); higher = stronger binding
Settings in all cases: glycan notation: IUPAC condensed, linker removed
[1] = target: Fuc(a1-3)[Gal(b1-4)]GlcNAc(b1-3)Gal(b1-4)[Fuc(a1-3)]GlcNAc
In short: (§1)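 Negative Z-scores can be read as non-binding. The Z-score is calculated within each array and then averaged across arrays of one protein sequence at different concentrations or buffers and across linkers. Arrays, 3228 in all, were curated from the Consortium for Functional Glycomics database and kept only where the protein sequence was available.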

[2] = target: Fuc(a1-3)[Gal(b1-4)]GlcNAc(b1-3)Gal(b1-4)[Fuc(a1-3)]GlcNAc(b1-3)Gal(b1-4)[Fuc(a1-3)]GlcNAc
In short: as §1

[3] = target: Fuc(a1-3)[Gal(b1-4)]GlcNAc(b1-3)GalNAc
In short: as §1

[4] = target: Fuc(a1-3)[Gal(b1-4)]GlcNAc(b1-6)GalNAc
In short: as §1

[5] = target: Fuc(a1-3)[Gal(b1-4)]GlcNAc(b1-6)[Gal(b1-3)GlcNAc(b1-3)]Gal(b1-4)Glc
In short: as §1

[6] = target: Fuc(a1-3)[Gal(b1-4)]GlcNAc6S
In short: as §1

[7] = target: Fuc(a1-3)[Gal3S(b1-4)]Glc
In short: as §1

[8] = target: Fuc(a1-3)[Gal3S(b1-4)]GlcNAc
In short: as §1

[9] = target: Fuc(a1-3)[Gal3S(b1-4)]GlcNAc6S
In short: as §1

[10] = target: Fuc(a1-3)[GalNAc(b1-4)]GlcNAc
In short: as §1

[11] = target: Fuc(a1-3)[GalNAc(b1-4)]GlcNAc6S
In short: as §1

Fuc(a1-4)GlcNAc = target: Fuc(a1-4)GlcNAc
In short: as §1

Fuc(b1-3)GlcNAc = target: Fuc(b1-3)GlcNAc
In short: as §1

Gal(a1-2)Gal = target: Gal(a1-2)Gal
In short: as §1

Gal(a1-3)Gal = target: Gal(a1-3)Gal
In short: as §1

Gal(a1-3)Gal(b1-3)GlcNAc = target: Gal(a1-3)Gal(b1-3)GlcNAc
In short: as §1

[12] = target: Gal(a1-3)Gal(b1-3)GlcNAc(b1-2)Man
In short: as §1

[13] = target: Gal(a1-3)Gal(b1-3)GlcNAc(b1-2)Man(a1-3)[Gal(a1-3)Gal(b1-3)GlcNAc(b1-2)Man(a1-6)]Man(b1-4)GlcNAc(b1-4)GlcNAc
In short: as §1

[14] = target: Gal(a1-3)Gal(b1-3)GlcNAc(b1-3)GalNAc
In short: as §1

[15] = target: Gal(a1-3)Gal(b1-3)GlcNAc(b1-6)GalNAc
In short: as §1

[16] = target: Gal(a1-3)Gal(b1-3)[Fuc(a1-4)]GlcNAc(b1-2)Man(a1-3)[Gal(a1-3)Gal(b1-3)[Fuc(a1-4)]GlcNAc(b1-2)Man(a1-6)]Man(b1-4)GlcNAc(b1-4)GlcNAc
In short: as §1

Gal(a1-3)Gal(b1-4)Glc = target: Gal(a1-3)Gal(b1-4)Glc
In short: as §1

Gal(a1-3)Gal(b1-4)GlcNAc = target: Gal(a1-3)Gal(b1-4)GlcNAc
In short: as §1

[17] = target: Gal(a1-3)Gal(b1-4)GlcNAc(b1-2)Man
In short: as §1

[18] = target: Gal(a1-3)Gal(b1-4)GlcNAc(b1-2)Man(a1-3)[Gal(a1-3)Gal(b1-4)GlcNAc(b1-2)Man(a1-6)]Man(b1-4)GlcNAc(b1-4)GlcNAc
In short: as §1

[19] = target: Gal(a1-3)Gal(b1-4)GlcNAc(b1-3)GalNAc
In short: as §1

[20] = target: Gal(a1-3)Gal(b1-4)GlcNAc(b1-6)GalNAc
In short: as §1

[21] = target: Gal(a1-3)Gal(b1-4)[Fuc(a1-3)]GlcNAc
In short: as §1

[22] = target: Gal(a1-3)Gal(b1-4)[Fuc(a1-3)]GlcNAc(b1-2)Man(a1-3)[Gal(a1-3)Gal(b1-4)[Fuc(a1-3)]GlcNAc(b1-2)Man(a1-6)]Man(b1-4)GlcNAc(b1-4)GlcNAc
In short: as §1

Gal(a1-3)GalNAc = target: Gal(a1-3)GalNAc
In short: as §1

[23] = target: Gal(a1-3)[Gal(a1-4)]Gal(b1-4)GlcNAc
In short: as §1

[24] = target: Gal(a1-4)Gal(b1-3)GlcNAc(b1-2)Man(a1-3)[Gal(a1-4)Gal(b1-3)GlcNAc(b1-2)Man(a1-6)]Man(b1-4)GlcNAc(b1-4)GlcNAc
In short: as §1

Gal(a1-4)Gal(b1-4)Glc = target: Gal(a1-4)Gal(b1-4)Glc
In short: as §1

Gal(a1-4)Gal(b1-4)GlcNAc = target: Gal(a1-4)Gal(b1-4)GlcNAc
In short: as §1

[25] = target: Gal(a1-4)Gal(b1-4)GlcNAc(b1-2)Man(a1-3)[Gal(a1-4)Gal(b1-4)GlcNAc(b1-2)Man(a1-6)]Man(b1-4)GlcNAc(b1-4)GlcNAc
In short: as §1

[26] = target: Gal(a1-4)Gal(b1-4)GlcNAc(b1-3)Gal(b1-4)Glc
In short: as §1

Gal(a1-4)GlcNAc = target: Gal(a1-4)GlcNAc
In short: as §1

Gal(a1-6)Glc = target: Gal(a1-6)Glc
In short: as §1

B1: SP15308A-bot-339-19-339 (Bacteroides ovatus) (protein)
chain: ACNNEWEDEQYEQYISFKSPIPAGGEGVTDIYVRYKEDGKVTYRLPIVVSGSTTNTLDREVHIAVDKDTLETLNIERFSIHRPGLWYTALEEDKYDFPKTVHISAGSSVEQLNIDFNLQGIDMLEKWVLPLTIVDDPSYNYKSHPRKNYAKALLRVIPFNNYSGSYTSSAMKVYTYINGKPDTNARTANKRTGYVINDNTVFFYAGLISEDLDKEVREKYKINVHFNEDGTLHMEQGDPTNKMKFELIGTPTYSKTSVMDATRPYLERRYVQIMFEYDFEDFSYGGNGVDVIPIKYKVEGSMTLQRNINTQIPDEDQQIEW
glycan array binding signal (z-score) [1]: -0.237 | glycan array binding signal (z-score) [2]: 0 | glycan array binding signal (z-score) [3]: -0.329 | glycan array binding signal (z-score) [4]: -0.05 | glycan array binding signal (z-score) [5]: -0.388 | glycan array binding signal (z-score) [6]: 0.096 | glycan array binding signal (z-score) [7]: -0.714 | glycan array binding signal (z-score) [8]: 0.719 | glycan array binding signal (z-score) [9]: -0.193 | glycan array binding signal (z-score) [10]: 0.14 | glycan array binding signal (z-score) [11]: -0.483 | glycan array binding signal (z-score) (Fuc(a1-4)GlcNAc): 19.1 | glycan array binding signal (z-score) (Fuc(b1-3)GlcNAc): 0.447 | glycan array binding signal (z-score) (Gal(a1-2)Gal): -0.091 | glycan array binding signal (z-score) (Gal(a1-3)Gal): 0.236 | glycan array binding signal (z-score) (Gal(a1-3)Gal(b1-3)GlcNAc): 0.959 | glycan array binding signal (z-score) [12]: -0.138 | glycan array binding signal (z-score) [13]: 0.299 | glycan array binding signal (z-score) [14]: -0.457 | glycan array binding signal (z-score) [15]: -0.101 | glycan array binding signal (z-score) [16]: 0.394 | glycan array binding signal (z-score) (Gal(a1-3)Gal(b1-4)Glc): -0.381 | glycan array binding signal (z-score) (Gal(a1-3)Gal(b1-4)GlcNAc): 0.23 | glycan array binding signal (z-score) [17]: -0.414 | glycan array binding signal (z-score) [18]: 0.709 | glycan array binding signal (z-score) [19]: -0.732 | glycan array binding signal (z-score) [20]: 0.055 | glycan array binding signal (z-score) [21]: -0.425 | glycan array binding signal (z-score) [22]: -0.56 | glycan array binding signal (z-score) (Gal(a1-3)GalNAc): -0.214 | glycan array binding signal (z-score) [23]: 1.28 | glycan array binding signal (z-score) [24]: -0.247 | glycan array binding signal (z-score) (Gal(a1-4)Gal(b1-4)Glc): 0.739 | glycan array binding signal (z-score) (Gal(a1-4)Gal(b1-4)GlcNAc): 0.261 | glycan array binding signal (z-score) [25]: 0.55 | glycan array binding signal (z-score) [26]: -0.507 | glycan array binding signal (z-score) (Gal(a1-4)GlcNAc): 0.096 | glycan array binding signal (z-score) (Gal(a1-6)Glc): 0.432
